# Source: a collection of fitness landscapes (doi:10.1016/j.celrep.2020.107928)
# The full ranking holds about 81,000 sequences; the median of “one-hybrid fitness for binding parS DNA” is about -0.17, and the highest 2% start at about 0.51. The list shows a part of the results.
# B1: Caulobacter ParB omega fusion; a variant is named by its letters at X, in order, B8GW30 (parent)
# chain: MESVVVGEPGMSEGRRGLGRGLSALLGEVDAAPAQAPGEQLGGSREAPIEILQRNPDQPRRTFREEDLEDLSNSIREKGVLQPILVRPSPDTAGEYQIVAGERAWRAAQRAGLKTVPIMVRELDDLAVLEIGIIENVQRADLNVLEEALSYKVLMEKFERTQENIAQTIGKSXSHVANXMRLLXLPDEVQSYLVSGELTAXHARAIAAAADPVALAKQIIEGGLSVRETEALARKAPNLSAGKSKGGRPPRVKDTDTQALESDLSSVLGLDVSIDHRGSTGTLTITYATLEQLDDLCNRLTRGI
# Variants of: B1
# Assay: one-hybrid fitness for binding parS DNA (scaled: cognate 1, non-cognate 0); higher = stronger binding
# Conditions: with parS DNA site
# Outline: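 Values were rescaled so that cognate is 1 and non-cognate is 0. Each is a fitness, the log change in a variant's read ratio to wild type from Illumina reads of plasmids before and after selection, with three replicate libraries pooled and variants under 10 reads dropped. Selection of the Caulobacter ParB libraries, four specificity codons randomised, used E. coli USO with a HIS3 reporter, site 19 bp from the promoter, on M9-minus-histidine with 0.1 mM IPTG and 5 mM 3-AT for 48 hours at 37°C.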
row,Variant,one-hybrid fitness for binding parS DNA
1,VKDD,≤ 0.2
2,RAIT,0.682
3,DWPL,≤ 0.2
4,NGVF,≤ 0.2
5,GDFV,≤ 0.2
6,ICKG,≤ 0.2
7,FDHG,≤ 0.2
8,CING,≤ 0.2
9,RINI,≤ 0.2
10,IAFR,≤ 0.2
11,REGA,≤ 0.2
12,FLTL,≤ 0.2
13,VSSV,≤ 0.2
14,LRVW,≤ 0.2
15,SCML,≤ 0.2
16,STSR,≤ 0.2
17,QCGR,≤ 0.2
18,RISN,0.454
19,MEYN,≤ 0.2
20,DAGG,≤ 0.2
21,GYGT,≤ 0.2
22,ITRM,≤ 0.2
23,AFLR,≤ 0.2
24,GIPI,≤ 0.2

row,Variant,one-hybrid fitness for binding parS DNA
1,KVKS,≤ 0.2
2,QIVT,≤ 0.2
3,IKYL,≤ 0.2
4,PFSD,≤ 0.2
5,GVNF,≤ 0.2
6,YVVC,≤ 0.2
7,GQRD,≤ 0.2
8,DRFK,≤ 0.2
9,WHIG,≤ 0.2
10,CPKA,≤ 0.2
11,ELYT,≤ 0.2
12,LSPQ,≤ 0.2
13,GHML,≤ 0.2
14,EGCL,≤ 0.2
15,HTSC,≤ 0.2
16,YIFG,≤ 0.2
17,NWNC,≤ 0.2
18,MTTG,≤ 0.2
19,KTTL,≤ 0.2
20,SYQG,≤ 0.2
21,IYPK,≤ 0.2
22,LYEG,≤ 0.2
23,IDVS,≤ 0.2
24,KLYE,≤ 0.2

row,Variant,one-hybrid fitness for binding parS DNA
1,QSRT,≤ 0.2
2,MLPS,≤ 0.2
3,SYDF,≤ 0.2
4,TTSL,≤ 0.2
5,SFKI,≤ 0.2
6,RNCR,≤ 0.2
7,RMTK,≤ 0.2
8,TTGS,≤ 0.2
9,TALK,≤ 0.2
10,YSSA,≤ 0.2
11,LCAC,≤ 0.2
12,GLVI,≤ 0.2
13,FIKG,≤ 0.2
14,SDGS,≤ 0.2
15,AEDA,≤ 0.2
16,CNPT,≤ 0.2
17,RSIW,≤ 0.2
18,IHIM,≤ 0.2
19,NDLM,≤ 0.2
20,ISQS,≤ 0.2
21,SPGR,≤ 0.2
22,TTDF,≤ 0.2
23,KTVS,≤ 0.2
24,IFSI,≤ 0.2

row,Variant,one-hybrid fitness for binding parS DNA
1,SSPT,≤ 0.2
2,ELMF,≤ 0.2
3,AHTE,≤ 0.2
4,TDDS,≤ 0.2
5,RSAY,0.462
6,AACR,≤ 0.2
7,WATC,≤ 0.2
8,PVRY,≤ 0.2
9,IHNG,≤ 0.2
10,QIHN,≤ 0.2
11,QKFS,≤ 0.2
12,RTCQ,≤ 0.2
13,SPHS,≤ 0.2
14,TAAR,≤ 0.2
15,EYHT,≤ 0.2
16,CHSP,≤ 0.2
17,VALD,≤ 0.2
18,NNAC,≤ 0.2
19,ECVS,≤ 0.2
20,KYNA,≤ 0.2
21,RDVT,≤ 0.2
22,PRKW,≤ 0.2
23,MSMR,≤ 0.2
24,FAAD,≤ 0.2

row,Variant,one-hybrid fitness for binding parS DNA
1,QLDI,≤ 0.2
2,NDHA,≤ 0.2
3,AHWP,≤ 0.2
4,ETPS,≤ 0.2
5,LQFS,≤ 0.2
6,GTNV,≤ 0.2
7,CGCS,≤ 0.2
8,EGPM,≤ 0.2
9,LKQD,≤ 0.2
10,CYDY,≤ 0.2
11,NPTF,≤ 0.2
12,QQSF,≤ 0.2
13,PNTA,≤ 0.2
14,IRVY,≤ 0.2
15,KPAI,≤ 0.2
16,YDTV,≤ 0.2
17,SQRH,≤ 0.2
18,KSLC,≤ 0.2
19,RENF,≤ 0.2
20,IIAM,≤ 0.2
21,RKLD,≤ 0.2
22,VKGC,≤ 0.2
23,YAAA,≤ 0.2
24,VNTK,≤ 0.2

row,Variant,one-hybrid fitness for binding parS DNA
1,TSFS,≤ 0.2
2,IGRY,≤ 0.2
3,RRWS,0.772
4,VYNV,≤ 0.2
5,RLSL,≤ 0.2
6,VYHP,≤ 0.2
7,HPSA,≤ 0.2
8,PMLV,≤ 0.2
9,IQAN,≤ 0.2
10,QRCD,≤ 0.2
11,WQVG,≤ 0.2
12,ASNH,≤ 0.2
13,RFHT,0.853
14,YDRK,≤ 0.2
15,TLKF,≤ 0.2
16,PFRS,≤ 0.2
17,MQCG,≤ 0.2
18,NTHM,≤ 0.2
19,TNWS,≤ 0.2
20,AYHW,≤ 0.2
21,IMHS,≤ 0.2
22,TEFR,≤ 0.2
23,EWLS,≤ 0.2
24,RQLW,0.223

row,Variant,one-hybrid fitness for binding parS DNA
1,GLPV,≤ 0.2
2,TCSD,≤ 0.2
3,GKLR,≤ 0.2
4,MSHP,≤ 0.2
5,MSTT,≤ 0.2
6,NSPV,≤ 0.2
7,DMLR,≤ 0.2
8,MVHT,≤ 0.2
9,NVVY,≤ 0.2
10,HVDI,≤ 0.2
11,STPF,≤ 0.2
12,VRQA,≤ 0.2
13,AMPE,≤ 0.2
14,RGCK,≤ 0.2
15,ASVT,≤ 0.2
16,TIEW,≤ 0.2
17,YKSK,≤ 0.2
18,ITVY,≤ 0.2
19,QQSQ,≤ 0.2
20,DVVM,≤ 0.2
21,PAWF,≤ 0.2
22,QKAL,≤ 0.2
23,HYCW,≤ 0.2
24,RMGD,≤ 0.2

row,Variant,one-hybrid fitness for binding parS DNA
1,KYSL,≤ 0.2
2,TAAQ,≤ 0.2
3,ERVS,≤ 0.2
4,SPYA,≤ 0.2
5,RPRR,≤ 0.2
6,PWKN,≤ 0.2
7,QVII,≤ 0.2
8,YIER,≤ 0.2
9,PINM,≤ 0.2
10,FTMS,≤ 0.2
11,QLIW,≤ 0.2
12,HNYT,≤ 0.2
13,FCDL,0.223
14,QDER,≤ 0.2
15,NGRS,≤ 0.2
16,TTVG,≤ 0.2
17,APPI,≤ 0.2
18,SDDY,≤ 0.2
19,QTLG,≤ 0.2
20,YDTG,≤ 0.2
21,QEDF,≤ 0.2
22,SCWA,≤ 0.2
23,RNGS,0.873
24,GWKR,≤ 0.2

row,Variant,one-hybrid fitness for binding parS DNA
1,FEGR,≤ 0.2
2,TVPN,≤ 0.2
3,EFYG,≤ 0.2
4,QGLP,≤ 0.2
5,SPTE,≤ 0.2
6,QHIW,≤ 0.2
7,YAQT,≤ 0.2
8,RHPP,≤ 0.2
9,GDCL,≤ 0.2
10,SDHY,≤ 0.2
11,VHKF,≤ 0.2
12,WESS,≤ 0.2
13,KIVV,≤ 0.2
14,VTVR,≤ 0.2
15,HYAN,≤ 0.2
16,GKRN,≤ 0.2
17,ETAS,≤ 0.2
18,YQKG,≤ 0.2
19,SYAS,≤ 0.2
20,PGEC,≤ 0.2
21,VMVY,≤ 0.2
22,VKHY,≤ 0.2
23,GDDI,≤ 0.2
24,DDDR,≤ 0.2

row,Variant,one-hybrid fitness for binding parS DNA
1,CATL,≤ 0.2
2,GMCC,≤ 0.2
3,NRFT,≤ 0.2
4,GALI,≤ 0.2
5,GDMM,≤ 0.2
6,IITV,≤ 0.2
7,QYKE,≤ 0.2
8,QQVP,≤ 0.2
9,LQLG,≤ 0.2
10,QYFA,≤ 0.2
11,MLDM,≤ 0.2
12,AWDS,≤ 0.2
13,MHRI,≤ 0.2
14,QQHI,≤ 0.2
15,QVRV,≤ 0.2
16,SMGM,≤ 0.2
17,TCGV,≤ 0.2
18,PDMF,≤ 0.2
19,RGIA,0.251
20,AHGT,≤ 0.2
21,VFPG,≤ 0.2
22,PVNQ,≤ 0.2
23,WASC,≤ 0.2
24,ADVW,≤ 0.2

row,Variant,one-hybrid fitness for binding parS DNA
1,RVQW,0.266
2,HCHA,≤ 0.2
3,RHVD,≤ 0.2
4,WMSV,≤ 0.2
5,HSYA,≤ 0.2
6,MSVK,≤ 0.2
7,QHGN,≤ 0.2
8,LFSW,≤ 0.2
9,FRPI,≤ 0.2
10,LGAE,≤ 0.2
11,HTNY,≤ 0.2
12,RQTI,≤ 0.2
13,YCHI,≤ 0.2
14,NLDF,≤ 0.2
15,QLCM,≤ 0.2
16,LNHR,≤ 0.2
17,NVHE,≤ 0.2
18,SYNF,≤ 0.2
19,AYMG,≤ 0.2
20,SSGY,≤ 0.2
21,QMNG,≤ 0.2
22,PIQT,≤ 0.2
23,HWLS,≤ 0.2
24,AKMP,≤ 0.2

row,Variant,one-hybrid fitness for binding parS DNA
1,VIAG,≤ 0.2
2,LRPC,≤ 0.2
3,GTNI,≤ 0.2
4,KTCY,≤ 0.2
5,LDAC,≤ 0.2
6,TWGR,≤ 0.2
7,YRLI,≤ 0.2
8,TLLC,≤ 0.2
9,GCTE,≤ 0.2
10,NQHC,≤ 0.2
11,NGIL,≤ 0.2
12,IRYR,≤ 0.2
13,ETPM,≤ 0.2
14,RDRT,≤ 0.2
15,HGDY,≤ 0.2
16,AKSR,≤ 0.2
17,LAGQ,≤ 0.2
18,SAQT,≤ 0.2
19,QNRT,≤ 0.2
20,PMLY,≤ 0.2
21,QDNT,≤ 0.2
22,WVRT,≤ 0.2
23,NPVF,≤ 0.2
24,KNQF,≤ 0.2

row,Variant,one-hybrid fitness for binding parS DNA
1,AMLE,≤ 0.2
2,SNRY,≤ 0.2
3,REER,≤ 0.2
4,PYNG,≤ 0.2
5,DYNH,≤ 0.2
6,QMRK,≤ 0.2
7,RSND,≤ 0.2
8,RSPW,≤ 0.2
9,WSFS,≤ 0.2
10,DREG,≤ 0.2
11,WFGR,≤ 0.2
12,DMHW,≤ 0.2
13,ITKV,≤ 0.2
14,SERR,≤ 0.2
15,LFTY,≤ 0.2
16,PDEL,≤ 0.2
17,YDPY,≤ 0.2
18,SFCT,≤ 0.2
